Consider four molecules from publication PMC4907068, “Phosphatase ABI1 and okadaic acid-sensitive phosphoprotein phosphatases inhibit salt stress-activated SnRK2.4 kinase” (BMC Plant Biology, 2016).

The chains behind the UniProt entries cited, without tags or fusion partners.
UniProt O04719: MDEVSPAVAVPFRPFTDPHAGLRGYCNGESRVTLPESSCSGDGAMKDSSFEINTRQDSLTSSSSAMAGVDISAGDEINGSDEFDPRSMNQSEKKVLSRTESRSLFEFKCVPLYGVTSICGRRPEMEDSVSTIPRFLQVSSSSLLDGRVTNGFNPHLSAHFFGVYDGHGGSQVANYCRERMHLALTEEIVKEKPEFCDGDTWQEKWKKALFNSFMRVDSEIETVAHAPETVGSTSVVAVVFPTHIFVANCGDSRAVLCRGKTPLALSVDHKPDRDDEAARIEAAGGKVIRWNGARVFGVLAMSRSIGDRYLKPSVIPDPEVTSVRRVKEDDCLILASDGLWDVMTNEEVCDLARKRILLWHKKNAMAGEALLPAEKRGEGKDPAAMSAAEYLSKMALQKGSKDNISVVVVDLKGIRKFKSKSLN

Results are given in words; binding and its absence hold for the method and conditions named. For part of these data: Binding seen in cells or lysates may run through a third protein. Some entries that bind do so weakly or less than the wild type. For part of these data: Sequences can lack the tags named with a protein.

Experiment [1] has as its target T1, nEYFP-SnRK2.6 (Arabidopsis thaliana) (UniProt Q940H6).
T1 sequence: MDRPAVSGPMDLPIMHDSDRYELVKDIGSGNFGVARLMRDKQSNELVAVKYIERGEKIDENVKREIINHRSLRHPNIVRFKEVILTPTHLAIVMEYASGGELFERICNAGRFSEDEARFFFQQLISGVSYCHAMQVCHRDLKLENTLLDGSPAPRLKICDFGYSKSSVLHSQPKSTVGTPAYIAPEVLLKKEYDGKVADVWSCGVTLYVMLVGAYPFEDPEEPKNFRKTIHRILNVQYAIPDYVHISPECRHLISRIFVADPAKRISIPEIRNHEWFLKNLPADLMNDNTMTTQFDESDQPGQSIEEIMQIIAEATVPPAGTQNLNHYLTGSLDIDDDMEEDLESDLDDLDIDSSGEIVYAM
Put plainly: split reporter; BiFC with complementary non-fluorescent fragments of EYFP, transiently co-expressed in Arabidopsis leaf protoplasts; confocal microscopy 16 h after transformation.

The target in experiment [2] is T2, nEYFP-SnRK2.4 (Arabidopsis thaliana) (UniProt P43291).
T2 sequence: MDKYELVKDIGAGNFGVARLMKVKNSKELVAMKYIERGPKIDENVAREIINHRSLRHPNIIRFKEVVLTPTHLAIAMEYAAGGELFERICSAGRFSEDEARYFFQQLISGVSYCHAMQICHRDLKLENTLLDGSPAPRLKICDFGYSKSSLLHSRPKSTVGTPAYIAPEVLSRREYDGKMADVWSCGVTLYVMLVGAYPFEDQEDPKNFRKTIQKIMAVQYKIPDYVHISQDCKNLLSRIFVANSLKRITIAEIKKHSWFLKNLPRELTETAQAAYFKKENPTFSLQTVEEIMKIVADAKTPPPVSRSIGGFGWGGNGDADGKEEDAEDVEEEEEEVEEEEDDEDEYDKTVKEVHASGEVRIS
The description is as above.

Experiment [3] concerns the target T3, nEYFP-SnRK2.8 (Arabidopsis thaliana) (UniProt Q9M9E9).
T3 sequence: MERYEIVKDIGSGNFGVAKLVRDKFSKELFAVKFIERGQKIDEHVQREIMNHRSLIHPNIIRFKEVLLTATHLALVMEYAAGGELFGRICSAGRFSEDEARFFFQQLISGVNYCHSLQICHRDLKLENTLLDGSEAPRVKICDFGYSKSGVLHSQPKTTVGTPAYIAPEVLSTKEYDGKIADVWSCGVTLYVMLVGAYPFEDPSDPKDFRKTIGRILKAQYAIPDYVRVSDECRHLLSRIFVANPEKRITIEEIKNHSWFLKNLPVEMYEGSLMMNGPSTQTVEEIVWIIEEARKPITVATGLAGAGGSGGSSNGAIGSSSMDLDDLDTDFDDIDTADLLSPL
Described as above.

The target of experiment [4] is T4, SnRK2.6 in fusion with the Gal4 DNA-binding domain (Arabidopsis thaliana) (UniProt Q940H6).
T4 sequence: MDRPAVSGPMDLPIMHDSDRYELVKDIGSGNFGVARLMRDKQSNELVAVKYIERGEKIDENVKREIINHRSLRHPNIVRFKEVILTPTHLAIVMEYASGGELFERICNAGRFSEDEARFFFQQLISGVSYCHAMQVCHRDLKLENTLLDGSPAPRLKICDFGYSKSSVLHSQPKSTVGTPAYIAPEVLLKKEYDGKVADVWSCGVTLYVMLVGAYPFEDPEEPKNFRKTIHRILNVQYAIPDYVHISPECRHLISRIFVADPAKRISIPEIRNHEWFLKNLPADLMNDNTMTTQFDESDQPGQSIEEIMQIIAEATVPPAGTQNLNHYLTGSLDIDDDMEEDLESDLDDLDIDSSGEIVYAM
Briefly: two-hybrid; AH109 yeast; SnRK2s in pGBT9 (Gal4 DNA-binding domain), PP2C phosphatases in pGAD424 (Gal4 activation domain); growth on SD without Leu/Trp/His with 1 mM - 10 mM 3-AT or SD without Leu/Trp/Ade.

Experiment [5] deals with T5, SnRK2.4 in fusion with the Gal4 DNA-binding domain (Arabidopsis thaliana) (UniProt P43291).
T5 sequence: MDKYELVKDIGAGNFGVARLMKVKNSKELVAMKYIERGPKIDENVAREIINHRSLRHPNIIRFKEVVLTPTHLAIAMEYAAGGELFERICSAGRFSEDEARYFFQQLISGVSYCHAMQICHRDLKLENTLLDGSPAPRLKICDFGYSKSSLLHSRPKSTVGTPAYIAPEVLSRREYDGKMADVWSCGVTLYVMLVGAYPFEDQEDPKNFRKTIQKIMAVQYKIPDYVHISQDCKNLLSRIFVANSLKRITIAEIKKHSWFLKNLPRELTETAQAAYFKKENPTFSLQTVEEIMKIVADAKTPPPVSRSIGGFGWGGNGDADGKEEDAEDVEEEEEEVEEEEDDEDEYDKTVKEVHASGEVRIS
The experiment is described as above.

In experiment [6] the target is T6, SnRK2.8 in fusion with the Gal4 DNA-binding domain (Arabidopsis thaliana) (UniProt Q9M9E9).
T6 sequence: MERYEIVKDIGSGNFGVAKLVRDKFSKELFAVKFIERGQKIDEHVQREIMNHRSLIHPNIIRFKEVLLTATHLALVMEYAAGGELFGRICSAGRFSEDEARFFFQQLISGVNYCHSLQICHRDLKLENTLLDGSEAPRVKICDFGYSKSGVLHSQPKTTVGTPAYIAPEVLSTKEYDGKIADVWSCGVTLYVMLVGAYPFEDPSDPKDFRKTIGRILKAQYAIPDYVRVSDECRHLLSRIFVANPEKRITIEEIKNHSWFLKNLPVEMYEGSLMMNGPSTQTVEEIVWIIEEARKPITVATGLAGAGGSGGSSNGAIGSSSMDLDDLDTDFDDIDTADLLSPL
Described as above.

Experiment [7] deals with T7, SnRK2.10 in fusion with the Gal4 DNA-binding domain (Arabidopsis thaliana) (UniProt Q9C958).
T7 sequence: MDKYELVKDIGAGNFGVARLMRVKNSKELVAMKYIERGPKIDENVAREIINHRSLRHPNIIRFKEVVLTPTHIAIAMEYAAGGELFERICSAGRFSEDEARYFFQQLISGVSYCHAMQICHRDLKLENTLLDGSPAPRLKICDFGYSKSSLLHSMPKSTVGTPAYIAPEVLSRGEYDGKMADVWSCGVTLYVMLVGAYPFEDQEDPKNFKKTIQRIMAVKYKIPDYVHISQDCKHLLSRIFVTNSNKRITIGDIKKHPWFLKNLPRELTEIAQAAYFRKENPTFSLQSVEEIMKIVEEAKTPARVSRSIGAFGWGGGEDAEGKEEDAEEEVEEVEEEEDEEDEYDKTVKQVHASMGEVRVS
Described as above.

The target in experiment [8] is T8, SnRK2.10 in fusion with the Gal4 DNA-binding domain (Arabidopsis thaliana), Q9C958.
T8 chain: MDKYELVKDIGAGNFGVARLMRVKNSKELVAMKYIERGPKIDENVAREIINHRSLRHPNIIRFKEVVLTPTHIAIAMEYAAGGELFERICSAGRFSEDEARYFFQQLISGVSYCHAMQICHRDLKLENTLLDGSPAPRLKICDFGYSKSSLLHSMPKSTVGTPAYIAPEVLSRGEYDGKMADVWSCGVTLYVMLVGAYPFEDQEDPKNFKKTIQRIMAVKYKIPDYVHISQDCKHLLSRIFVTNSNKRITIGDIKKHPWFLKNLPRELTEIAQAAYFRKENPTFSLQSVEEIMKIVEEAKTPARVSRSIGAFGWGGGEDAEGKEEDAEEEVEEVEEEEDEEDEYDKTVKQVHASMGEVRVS
Described as above. As to conditions: remark: other sources report otherwise.

“ABI1-cEYFP (from UniProt P49597 1-434) (enzyme)”: the binding result in experiment [1], in experiment [2] and in experiment [3] was “binds” throughout.
As to “ABI1 (ABA-insensitive 1) in fusion with the Gal4 activation domain (from UniProt P49597 1-434) (enzyme)”, the binding entry in experiment [4], in experiment [5] and in experiment [6] was “binds” each time.
As to “ABI2 in fusion with the Gal4 activation domain (from UniProt O04719 1-423) (enzyme)”, the figures for the binding result in experiment [6] and in experiment [7] were “binds weakly” and “no binding”, respectively.

B1: ABI1 (ABA-insensitive 1) in fusion with the Gal4 activation domain, P49597 1-434 (enzyme)
chain: MEEVSPAIAGPFRPFSETQMDFTGIRLGKGYCNNQYSNQDSENGDLMVSLPETSSCSVSGSHGSESRKVLISRINSPNLNMKESAAADIVVVDISAGDEINGSDITSEKKMISRTESRSLFEFKSVPLYGFTSICGRRPEMEDAVSTIPRFLQSSSGSMLDGRFDPQSAAHFFGVYDGHGGSQVANYCRERMHLALAEEIAKEKPMLCDGDTWLEKWKKALFNSFLRVDSEIESVAPETVGSTSVVAVVFPSHIFVANCGDSRAVLCRGKTALPLSVDHKPDREDEAARIEAAGGKVIQWNGARVFGVLAMSRSIGDRYLKPSIIPDPEVTAVKRVKEDDCLILASDGVWDVMTDEEACEMARKRILLWHKKNAVAGDASLLADERRKEGKDPAAMSAAEYLSKLAIQRGSKDNISVVVVDLKPRRKLKSKPLN
On to B1, for which, in experiment [8], the binding result is listed as “no binding”.
